Test results as given in the supplement of paper PMC4166925.
± gives the standard deviation of the averaged measurements. Whole data set: some 33,000 sequences, median “E-score (dimensionless, -0.5 to 0.5)” near -0.046, cut for the highest 2% near 0.36. This is one part of the list.

The sequences below were run on T1, SpTbr T-box DNA-binding domain (GST fusion) (assay: PBM E-score of 8-mer (E-score (dimensionless, -0.5 to 0.5)); Tbr is Tbrain of the sea star Patiria miniata (Pm) or the sea urchin Strongylocentrotus purpuratus (Sp); higher = stronger binding preference; most listed sequences are background and not binding sites). Conditions: the construct has about 5 more residues each side.
T1 sequence: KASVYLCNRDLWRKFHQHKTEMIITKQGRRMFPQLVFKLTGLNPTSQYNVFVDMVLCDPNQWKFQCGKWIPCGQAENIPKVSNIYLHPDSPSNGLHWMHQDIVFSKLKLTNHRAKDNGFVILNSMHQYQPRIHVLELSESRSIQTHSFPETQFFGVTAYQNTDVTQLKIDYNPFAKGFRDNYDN
Protocol: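 Universal protein-binding microarray (Agilent AMADID 016060, 60-bp probes with a 35-bp variable region) incubated with 200 nM GST-fused Strongylocentrotus purpuratus Tbr T-box DNA-binding domain (residues 362-554) in PBS pH 7.5. Scored for every ungapped 8-mer (given with its reverse complement) as E-score (range -0.5 to 0.5; >0.45 counts as bound) and Z-score of median probe intensity. Two replicate arrays (datasets 1 and 2).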
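Further: protein at 200 nM in PBS on universal double-stranded arrays.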

| Sequence | PBM E-score of 8-mer |
| --- | --- |
| CTCACTCC | 0.1631 ± 0.0014 |
| GCACGCGA | 0.186 ± 0.025 |
| CTAAGTCC | -0.306 ± 0.026 |
| CCCTGGAA | -0.2852 ± 0.0011 |
| AGCACGGA | -0.151 ± 0.074 |
| ACACACCC | 0.33 ± 0.0064 |
| TGGATAAA | -0.228 ± 0.029 |
| ACGTATCC | -0.203 ± 0.053 |
| CGTTGTCC | -0.0704 ± 0.064 |
| CCCGGGAC | -0.243 ± 0.021 |
| TCACAAAA | 0.0827 ± 0.084 |
| CTTGTGTC | 0.0961 ± 0.026 |
| CCTGCCGA | -0.097 ± 0.019 |
| TCCATAGA | -0.123 ± 0.0071 |
| GTACACTA | -0.0864 ± 0.057 |
| CTATGGCC | -0.101 ± 0.041 |
| CCCGAGGC | 0.135 ± 0.022 |
| ATGCCAAG | -0.291 ± 0.022 |
| CCAACTCG | 0.0776 ± 0.035 |
| ACGGGTTA | -0.113 ± 0.063 |
| TAGTGTGA | 0.453 ± 0.011 |
| AGTCGCGA | 0.352 ± 0.014 |

| Sequence | PBM E-score of 8-mer |
| --- | --- |
| AGCTATCC | -0.276 ± 0.083 |
| ACAAATGG | -0.0752 ± 0.018 |
| CTGTACTA | -0.129 ± 0.071 |
| CTACACGC | 0.163 ± 0.011 |
| AAGTTACA | 0.0132 ± 0.058 |
| GATTAAAA | -0.0805 ± 0.057 |
| CACATGGC | 0.194 ± 0.019 |
| AGAAGACC | -0.19 ± 0.066 |
| AGGTTCAT | -0.0844 ± 0.077 |
| CGTAACTC | -0.134 ± 0.057 |
| CATACCAC | 0.0608 ± 0.012 |
| CCGCGTGC | 0.129 ± 0.15 |
| CGAGAGAG | 0.0904 ± 0.028 |
| GGCGGCCC | -0.177 ± 0.0053 |
| AACATTCA | -0.0456 ± 0.036 |
| GTCGTTGA | 0.108 ± 0.026 |
| CCATTAGG | -0.272 ± 0.042 |
| CGAACGAG | 0.0552 ± 0.067 |
| AATACGAC | 0.0331 ± 0.0058 |
| AGCGGCTC | 0.0237 ± 0.003 |
| AATCTGGA | -0.326 ± 0.099 |
| GGCCATAA | -0.0646 ± 0.045 |

| Sequence | PBM E-score of 8-mer |
| --- | --- |
| CCGGATAC | -0.202 ± 0.034 |
| AATACATC | -0.129 ± 0.052 |
| ACTTACTA | -0.158 ± 0.036 |
| CTTTCTAA | -0.187 ± 0.023 |
| ATACCCCA | -0.156 ± 0.069 |
| AGGATCAA | -0.2196 ± 0.00077 |
| ATAATCTG | -0.135 ± 0.012 |
| AAATCCCT | -0.104 ± 0.071 |
| ACCCCACC | -0.0217 ± 0.12 |
| CAAGATCA | -0.0232 ± 0.022 |
| CGACTCAG | 0.0215 ± 0.028 |
| GCAAGGTA | -0.0328 ± 0.0042 |
| CAGCCCCA | -0.03 ± 0.0063 |
| CCTATGAA | -0.211 ± 0.019 |
| GGATACAA | 0.0747 ± 0.011 |
| TGGGGACA | -0.0363 ± 0.01 |
| GAGTCTCA | 0.0256 ± 0.034 |
| AGACATTA | -0.121 ± 0.013 |
| CAAAGGCG | 0.124 ± 0.017 |
| ATTGTGAA | 0.317 ± 0.067 |
| CCTTAAAC | -0.152 ± 0.018 |
| CGGACCGA | -0.161 ± 0.02 |

| Sequence | PBM E-score of 8-mer |
| --- | --- |
| ACCTCACA | 0.41113 ± 4.2e-05 |
| CACCGCGG | 0.00256 ± 0.0018 |
| ACCTCGAG | 0.174 ± 0.04 |
| CATTATTA | -0.0139 ± 0.015 |
| CGGTTCCC | -0.179 ± 0.036 |
| GGGACAAA | -0.149 ± 0.042 |
| CTCCAGAC | -0.0344 ± 0.063 |
| TAGGTTAA | -0.244 ± 0.038 |
| CAACCGCC | -0.00536 ± 0.012 |
| CTTATGTC | -0.115 ± 0.084 |
| TCCGTTAA | -0.0135 ± 0.015 |
| AAGCGCTT | 0.0436 ± 0.059 |
| CCGTATAC | -0.0858 ± 0.014 |
| CCGAGACA | -0.0213 ± 0.11 |
| ATCCGGTG | -0.0513 ± 0.016 |
| CATGGCCC | -0.225 ± 0.024 |
| CTATAGCC | -0.141 ± 0.062 |
| CGGTGCAC | -0.0243 ± 0.0037 |
| ACTATTCA | -0.127 ± 0.038 |
| AGAGCTAC | -0.2216 ± 0.00082 |
